Data published in patent publication US20230220053A1 (published 2023).

Target: T1, SARS-CoV-2-RBD (328-533)-Fc (SARS-CoV-2)
T1 construct: also called RBD-Fc
Test: SPR (Biacore T200), RBD captured on anti-human Fc chip, scFv injected

B1: 2020EP54-B12 scFv (scFv)
scFv: [about 100 residues omitted]VTRVGFDYWGQGTLVTVSSGGGGSGGGGSGGGGSSYELTQPPSVSVAPGKTARITCGGNNIGSKSVHWYQQKPGQAPVLVIYYDSDRPSGIPERFSGSNSGNTATLTISRVEAEDEADYYCQVWDSSSDVVFGGGTKLTVL
notes: also called 2020EP054-B12
B1 was tested, and the Kd was 7.49 nM, the koff was 0.00504 s⁻¹ and the kon was 672000 M⁻¹ s⁻¹.
